# Inconclusive means that the source gave no clear call. Such entries were picked first, then a sample of the others. For some assays here: Where the call is inconclusive, the potency comes from a doubtful curve fit. The source made the active and inactive calls. Unless noted, calls come from the whole dose curve; as a rule, active = well fitted curve in the direction sought with a large enough effect in the repeat runs; inconclusive = weak or mixed curves; inactive = no such curve, though single readings can be large; an effect the other way counts as inactive or inconclusive.
# How the values were obtained:
# [1] = qHTS assay for small molecule agonists of the p53 signaling pathway (AID 651631; calls by dose curve; note: potency is the fitted concentration of half-maximal effect; nearly all actives have a fitted effect of over 15% in size); conditions: HCT-116 p53RE-bla reporter, beta-lactamase FRET ratio, 16 h; activation: at 73.3 µM (top of the series) unless noted
# Outline: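 HCT-116 p53RE-bla reporter line, 16 h compound treatment at 37 °C, then fluorescence after 2 h with B/G FRET substrate.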
# [2] = qHTS assay for small molecules that induce genotoxicity in human embryonic kidney cells expressing luciferase-tagged ATAD5 - cell viability (AID 651634; calls by dose curve; note: potency is the fitted concentration of half-maximal effect; nearly all actives have a fitted effect of over 25% in size)
# Outline: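 Seeding of 2,000 HEK293T ATAD5-luciferase cells per well preceded pin-tool compound transfer. Plates sat 15.5 hr at 37C under 5% CO2, then fluorescence was read after 30 min with CellTiter-Fluor.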
# [3] = qHTS assay for small molecule disruptors of the mitochondrial membrane potential (AID 720635); conditions: HepG2 mitochondrial membrane potential, Mito-MPS dye ratio; ratio activity, negative = MMP loss: at 83.2 µM (top of the series) unless noted; note: potency is the fitted concentration of half-maximal effect
# Outline: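 Mitochondrial membrane potential tracked with Mito-MPS dye, red aggregates (ex 540/em 590 nm) against green monomers (ex 490/em 535 nm). Compound treatment 1 hr at 37C, dye 30 min in HepG2.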
# [4] = biological target: Glucocorticoid receptor (Homo sapiens) (UniProt P04150); experiment: qHTS assay to identify small molecule antagonists of the glucocorticoid receptor (GR) signaling pathway (AID 720692; active = well fitted inhibition curve with a large enough effect in the signal ratio in the repeat runs, not every such curve was filed as active; inconclusive = weak or mixed curves, or effect the other way; inactive = no such curve, though single readings can be large or run the other way; the % refers to the signal ratio; note: potency is the fitted concentration of half-maximal effect); conditions: GR-bla HeLa, beta-lactamase FRET ratio, dexamethasone-stimulated, 18 h; activity change, negative = inhibition: at 58.5 µM (top of the series) unless noted
# Outline: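 Dexamethasone (5 nM final) stimulated a stably integrated GRE-beta-lactamase reporter in HeLa cells during 18 h co-incubation with compounds; signal was quantified as fluorescence intensity of B/G FRET substrate after 2 h.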
# [5] = qHTS assay for identifying genotoxic compounds that show differential cytotoxicity against isogenic chicken DT40 cell lines with known DNA damage response pathways - wild type cell line (AID 743012); conditions: DT40 wild type chicken cells viability, CellTiter-Glo, 40 h; activity change, negative = cytotoxicity: at 68.4 µM (top of the series) unless noted; note: potency is the fitted concentration of half-maximal effect; nearly all actives have a fitted effect of over 60% in size
# Outline: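 Using parental DT40 (300 cells/well), compounds delivered in DMSO incubate 40 h at 37 C/5% CO2. CellTiter-Glo reagent then stands 30 min at room temperature, and luminescence gives cell viability.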
# [6] = qHTS assay for identifying genotoxic compounds that show differential cytotoxicity against isogenic chicken DT40 cell lines with known DNA damage response pathways - Rev3 mutant cell line (AID 743014); conditions: chicken DT40 Rev3-/- viability, CellTiter-Glo, 40 h; activity, negative = cytotoxicity: at 68.4 µM (top of the series); note: potency is the fitted concentration of half-maximal effect; nearly all actives have a fitted effect of over 55% in size
# [7] = qHTS assay to identify small molecule antagonists of the androgen receptor (AR) signaling pathway - cell viability counter screen (AID 743033; note: potency is the fitted concentration of half-maximal effect; nearly all actives have a fitted effect of over 45% in size)
# [8] = qHTS assay to identify small molecule antagonists of the androgen receptor (AR) signaling pathway using the MDA cell line - cell viability counter screen (AID 743041; note: potency is the fitted concentration of half-maximal effect; nearly all actives have a fitted effect of over 45% in size); conditions: MDA-kb2 viability, CellTiter-Fluor, 16 h, cells co-treated with R1881 androgen agonist; viability change, negative = cytotoxic: at 70.3 µM (top of the series)
# Outline: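 Cells were plated at 3,000 per well and left 5 h. Compounds in DMSO were then pinned in, followed by R1881. After 16 h at 37C, CellTiter-Fluor fluorescence gave viability.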
# [9] = tested on: thyroid hormone receptor (rat, GH3 cells); experiment: qHTS assay to identify small molecule agonists of the thyroid receptor (TR) signaling pathway (AID 743066; calls by dose curve; note: % is set by controls: 0 for no effect and ±100 for the full control effect); conditions: GH3.TRE-Luc cells, TR agonist luciferase, 24 h; activation: at 83.9 µM (top of the series) unless noted
# [10] = biological target: Estrogen receptor (Homo sapiens) (UniProt P03372); experiment: qHTS assay to identify small molecule agonists of the estrogen receptor alpha (ER-alpha) signaling pathway (AID 743075; calls by dose curve;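 note: HEK293 GripTite cells with ER-alpha and UAS-driven beta-lactamase reporter; potency is the fitted concentration of half-maximal effect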); conditions: HEK293 ER-alpha-UAS-bla, beta-lactamase FRET ratio, 18 h; activation: at 70.1 µM (top of the series) unless noted
# [11] = biological target: Estrogen receptor (Homo sapiens) (UniProt P03372); experiment: qHTS assay to identify small molecule agonists of the estrogen receptor alpha (ER-alpha) signaling pathway using the BG1 cell line (AID 743079); conditions: BG1Luc4E2 cells, ERE-luciferase agonist, 22 h; activation: at 70.3 µM (top of the series) unless noted; note: % is set by controls: 0 for no effect and ±100 for the full control effect; nearly all actives have a fitted effect of over 20% in size
# [12] = qHTS assay to identify small molecule antagonists of the estrogen receptor alpha (ER-alpha) signaling pathway using the BG1 cell line (AID 743080; calls by dose curve;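 note: BG1 cells stimulated with 17beta-estradiol alongside compound; % is set by controls: 0 for no effect and ±100 for the full control effect; nearly all actives have a fitted effect of over 25% in size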); conditions: BG1Luc4E2 ERE-luciferase antagonist mode, luminescence; activity change, negative = inhibition: at 70.3 µM (top of the series) unless noted
# Outline: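 Quantitative HTS on the Tox21 10K library: BG1 cells with endogenous ER-alpha and ERE-luciferase reporter, 17beta-estradiol stimulation, 21.5 h compound exposure, luminescence endpoint with parallel fluorescence cytotoxicity counter-read.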
# [13] = qHTS assay to identify small molecule antagonists of the estrogen receptor alpha (ER-alpha) signaling pathway using the BG1 cell line - cell viability counter screen (AID 743081); conditions: BG1Luc4E2 viability, CellTiter-Fluor, 22 h; activity change, negative = cytotoxicity: at 70.3 µM (top of the series);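 note: compound given together with 17beta-estradiol as the ER stimulus; potency is the fitted concentration of half-maximal effect; nearly all actives have a fitted effect of over 45% in size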
# [14] = biological target: Aryl hydrocarbon receptor (Homo sapiens) (UniProt P35869); experiment: qHTS assay to identify small molecule that activate the aryl hydrocarbon receptor (AhR) signaling pathway (AID 743085); note: potency is the fitted concentration of half-maximal effect; nearly all actives have a fitted effect of over 15% in size
# Outline: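 Steps: seed HepG2-AhR-luc cells; allow 5 h at 37C; pin-transfer test compound or vehicle; incubate 24 h at 37C; add viability dye (30 min, 37C) and read fluorescence; add luciferase substrate (30 min, RT) and read luminescence.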
# [15] = qHTS assay to identify small molecule that activate the aryl hydrocarbon receptor (AhR) signaling pathway - cell viability counter screen (AID 743086); note: potency is the fitted concentration of half-maximal effect; nearly all actives have a fitted effect of over 45% in size
# Outline: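 Cytotoxicity counter screen: CellTiter-Fluor signal (30 min, 37 C) in 4000 HepG2 cells/well carrying the DRE-luciferase reporter, following 24 h compound exposure at 37 C.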
# [16] = biological target: Peroxisome proliferator-activated receptor gamma (Homo sapiens) (UniProt P37231); experiment: qHTS assay to identify small molecule agonists of the peroxisome proliferator-activated receptor gamma (PPARg) signaling pathway (AID 743094; active = well fitted activation curve with a large enough effect in the signal ratio in the repeat runs, not every such curve was filed as active; inconclusive = weak or mixed curves, or effect the other way; inactive = no such curve, though single readings can be large or run the other way; the % refers to the signal ratio; note: % is set by controls: 0 for no effect and ±100 for the full control effect); conditions: HEK293H PPARg-UAS-bla, beta-lactamase FRET ratio, 17 h; activation: at 57 µM (top of the series) unless noted
# Outline: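 Following 5 h plating at 37C, PPARg-bla HEK293H cells receive compound or DMSO for 17 h; fluorescence intensity is recorded after LiveBLAzer B/G loading for 1 h at room temperature.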
# Tags give direction and shape of the fitted curve or compound fluorescence and quenching.
# Chain of UniProt P03372 (P03372 whole entry, looked up): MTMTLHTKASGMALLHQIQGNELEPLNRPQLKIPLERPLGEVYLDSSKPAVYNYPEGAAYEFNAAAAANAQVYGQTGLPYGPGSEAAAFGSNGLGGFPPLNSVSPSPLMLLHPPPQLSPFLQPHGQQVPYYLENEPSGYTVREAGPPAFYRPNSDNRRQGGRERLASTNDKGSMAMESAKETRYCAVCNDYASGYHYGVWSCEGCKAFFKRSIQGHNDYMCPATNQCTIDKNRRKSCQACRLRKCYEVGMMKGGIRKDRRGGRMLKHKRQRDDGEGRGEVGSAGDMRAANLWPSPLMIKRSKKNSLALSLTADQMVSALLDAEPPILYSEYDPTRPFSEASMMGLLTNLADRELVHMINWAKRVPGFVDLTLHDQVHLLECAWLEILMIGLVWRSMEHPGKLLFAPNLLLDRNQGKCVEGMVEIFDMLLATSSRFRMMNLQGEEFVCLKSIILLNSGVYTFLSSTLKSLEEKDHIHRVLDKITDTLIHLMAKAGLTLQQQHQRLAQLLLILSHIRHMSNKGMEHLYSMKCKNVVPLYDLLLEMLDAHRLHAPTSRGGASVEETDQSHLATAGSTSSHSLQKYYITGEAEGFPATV
# Chain of UniProt P37231 (P37231 whole entry, looked up): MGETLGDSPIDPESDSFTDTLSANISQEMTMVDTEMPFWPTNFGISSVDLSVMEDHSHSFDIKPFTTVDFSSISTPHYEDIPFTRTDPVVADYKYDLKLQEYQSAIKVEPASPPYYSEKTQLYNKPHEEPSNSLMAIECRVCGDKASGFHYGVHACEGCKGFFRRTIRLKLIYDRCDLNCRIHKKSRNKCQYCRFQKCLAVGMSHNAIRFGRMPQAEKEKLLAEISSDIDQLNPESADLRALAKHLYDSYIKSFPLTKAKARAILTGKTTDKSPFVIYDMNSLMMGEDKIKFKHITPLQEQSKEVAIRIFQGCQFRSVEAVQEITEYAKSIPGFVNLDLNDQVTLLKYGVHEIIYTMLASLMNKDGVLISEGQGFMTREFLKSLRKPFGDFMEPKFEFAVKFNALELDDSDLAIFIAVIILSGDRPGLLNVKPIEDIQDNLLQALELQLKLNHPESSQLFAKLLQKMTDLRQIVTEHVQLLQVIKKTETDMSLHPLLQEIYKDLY
# Chain of UniProt P35869 (P35869 whole entry, looked up): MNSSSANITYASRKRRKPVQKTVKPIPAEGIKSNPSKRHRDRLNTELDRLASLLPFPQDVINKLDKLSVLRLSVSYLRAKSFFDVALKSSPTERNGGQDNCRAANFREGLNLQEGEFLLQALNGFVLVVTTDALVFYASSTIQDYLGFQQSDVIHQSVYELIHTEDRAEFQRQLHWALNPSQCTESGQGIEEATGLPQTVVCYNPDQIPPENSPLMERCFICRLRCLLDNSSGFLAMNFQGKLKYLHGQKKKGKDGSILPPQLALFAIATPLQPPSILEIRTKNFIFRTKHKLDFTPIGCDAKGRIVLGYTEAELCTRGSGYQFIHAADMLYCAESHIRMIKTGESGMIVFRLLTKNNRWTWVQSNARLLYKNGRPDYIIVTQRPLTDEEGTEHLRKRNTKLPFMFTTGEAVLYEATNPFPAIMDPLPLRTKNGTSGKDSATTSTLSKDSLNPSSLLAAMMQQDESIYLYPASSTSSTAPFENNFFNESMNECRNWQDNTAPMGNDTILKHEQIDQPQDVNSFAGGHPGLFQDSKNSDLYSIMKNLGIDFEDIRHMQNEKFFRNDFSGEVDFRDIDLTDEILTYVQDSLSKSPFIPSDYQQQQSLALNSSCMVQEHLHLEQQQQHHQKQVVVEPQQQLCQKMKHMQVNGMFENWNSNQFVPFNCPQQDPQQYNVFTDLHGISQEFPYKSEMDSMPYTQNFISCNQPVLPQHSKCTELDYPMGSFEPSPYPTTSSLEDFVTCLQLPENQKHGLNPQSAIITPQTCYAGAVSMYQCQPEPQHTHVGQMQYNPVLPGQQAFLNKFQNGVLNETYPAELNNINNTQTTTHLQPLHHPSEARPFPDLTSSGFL
# Chain of UniProt P04150 (P04150 whole entry, looked up): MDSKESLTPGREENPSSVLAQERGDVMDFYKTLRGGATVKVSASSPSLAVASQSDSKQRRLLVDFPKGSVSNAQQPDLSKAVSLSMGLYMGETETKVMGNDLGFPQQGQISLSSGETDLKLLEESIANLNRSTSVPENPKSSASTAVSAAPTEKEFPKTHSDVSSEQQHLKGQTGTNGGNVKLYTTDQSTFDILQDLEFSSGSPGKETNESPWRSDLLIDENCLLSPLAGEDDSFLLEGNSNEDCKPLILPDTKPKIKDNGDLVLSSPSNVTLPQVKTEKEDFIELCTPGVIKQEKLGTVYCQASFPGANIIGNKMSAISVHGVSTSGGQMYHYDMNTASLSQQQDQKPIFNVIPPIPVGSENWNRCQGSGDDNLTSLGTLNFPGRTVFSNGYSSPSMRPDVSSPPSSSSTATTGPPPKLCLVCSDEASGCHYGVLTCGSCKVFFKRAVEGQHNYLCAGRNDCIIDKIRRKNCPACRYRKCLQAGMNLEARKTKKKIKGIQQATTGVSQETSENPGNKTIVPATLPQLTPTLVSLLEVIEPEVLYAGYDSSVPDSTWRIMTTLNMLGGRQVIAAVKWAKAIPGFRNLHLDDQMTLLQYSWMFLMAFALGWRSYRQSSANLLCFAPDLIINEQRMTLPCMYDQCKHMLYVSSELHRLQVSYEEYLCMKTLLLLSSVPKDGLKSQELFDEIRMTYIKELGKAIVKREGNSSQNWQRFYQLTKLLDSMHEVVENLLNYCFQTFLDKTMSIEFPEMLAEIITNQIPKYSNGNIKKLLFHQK
SMILES,Potency [1],Potency [2],Potency [3],Potency [4],Potency [5],Potency [6],Potency [7],Potency [8],activation [9],Potency [10],Potency [11],"activity change, negative = inhibition [12]",Potency [13],Potency [14],Potency [15],activation [16]
c1cc(OCC2CO2)cc(OCC2CO2)c1 (configuration not stated),active: 21500 nM,,,,,,,,,,,,,,,
COc1cc([C@@H]2c3cc4c(cc3[C@@H](O)[C@H]3COC(=O)[C@H]23)OCO4)cc(OC)c1O,active: 168 nM,active: 298 nM,active: 2110 nM,"inconclusive: 601 nM [activator, full curve]",active: 237 nM,active: 266 nM,"inconclusive: 107 nM [cytotoxic, full curve, poor fit]","inconclusive: 29800 nM [cytotoxic, partial curve, poor fit]",inconclusive: -8.39% [phenotype inactive],"inconclusive: 535 nM [falling, full curve]",inactive,inconclusive: -16.1%,"inconclusive: 11900 nM [cytotoxic, partial curve]","inconclusive: 37600 nM [activator, partial curve]",active: 29800 nM,inconclusive: -12.8%

# Reference: PubChem BioAssay (Tox21)
